# Data published in the supplement of paper PMC8728848.
# Some of the results follow.
# Legend:
# Assay in all cases: glycan array binding signal (z-score within array); higher = stronger binding
# Settings in all cases: glycan notation: IUPAC condensed, linker removed
# [1] = molecular target: Fuc(a1-2)Gal(b1-4)GlcNAc(b1-3)Gal(b1-4)GlcNAc(b1-3)Gal(b1-4)GlcNAc
# Summary of the method: (§1)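 The Consortium for Functional Glycomics database supplied 3228 glycan arrays, of which those lacking an available protein sequence were dropped. The binding signal, a within-array Z-score, was averaged across arrays of the same protein sequence and across linkers. Negative scores can be read as non-binding.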
# [2] = molecular target: Fuc(a1-2)Gal(b1-4)GlcNAc(b1-3)GalNAc
# Summary of the method: as §1
# [3] = molecular target: Fuc(a1-2)Gal(b1-4)GlcNAc(b1-3)[Fuc(a1-2)Gal(b1-4)GlcNAc(b1-6)]GalNAc
# Summary of the method: as §1
# [4] = molecular target: Fuc(a1-2)Gal(b1-4)GlcNAc(b1-6)GalNAc
# Summary of the method: as §1
# [5] = molecular target: Fuc(a1-2)Gal(b1-4)GlcNAc6S
# Summary of the method: as §1
# [6] = molecular target: Fuc(a1-2)Gal(b1-4)[Fuc(a1-3)]GlcNAc
# Summary of the method: as §1
# [7] = molecular target: Fuc(a1-2)Gal(b1-4)[Fuc(a1-3)]GlcNAc(b1-2)Man(a1-3)[Fuc(a1-2)Gal(b1-4)[Fuc(a1-3)]GlcNAc(b1-2)Man(a1-6)]Man(b1-4)GlcNAc(b1-4)GlcNAc
# Summary of the method: as §1
# [8] = molecular target: Fuc(a1-2)Gal(b1-4)[Fuc(a1-3)]GlcNAc(b1-2)Man(a1-6)[Fuc(a1-2)Gal(b1-4)[Fuc(a1-3)]GlcNAc(b1-2)Man(a1-3)]Man(b1-4)GlcNAc(b1-4)[Fuc(a1-6)]GlcNAc
# Summary of the method: as §1
# [9] = molecular target: Fuc(a1-2)Gal(b1-4)[Fuc(a1-3)]GlcNAc(b1-2)[Fuc(a1-2)Gal(b1-4)[Fuc(a1-3)]GlcNAc(b1-4)]Man(a1-3)[Fuc(a1-2)Gal(b1-4)[Fuc(a1-3)]GlcNAc(b1-2)Man(a1-6)]Man(b1-4)GlcNAc(b1-4)GlcNAc
# Summary of the method: as §1
# [10] = molecular target: Fuc(a1-2)Gal(b1-4)[Fuc(a1-3)]GlcNAc(b1-3)Gal(b1-4)[Fuc(a1-3)]GlcNAc
# Summary of the method: as §1
# [11] = molecular target: Fuc(a1-2)Gal(b1-4)[Fuc(a1-3)]GlcNAc(b1-3)Gal(b1-4)[Fuc(a1-3)]GlcNAc(b1-3)Gal(b1-4)[Fuc(a1-3)]GlcNAc
# Summary of the method: as §1
# [12] = molecular target: Fuc(a1-2)Gal(b1-4)[Fuc(a1-3)]GlcNAc(b1-3)GalNAc
# Summary of the method: as §1
# [13] = molecular target: Fuc(a1-2)Gal(b1-4)[Fuc(a1-3)]GlcNAc(b1-3)[Neu5Ac(a2-6)Gal(b1-4)GlcNAc(b1-6)]Gal(b1-4)Glc
# Summary of the method: as §1
# [14] = molecular target: Fuc(a1-2)Gal6S(b1-3)GlcNAc
# Summary of the method: as §1
# [15] = molecular target: Fuc(a1-2)Gal6S(b1-3)GlcNAc6S
# Summary of the method: as §1
# [16] = molecular target: Fuc(a1-2)Gal6S(b1-4)Glc
# Summary of the method: as §1
# [17] = molecular target: Fuc(a1-2)Gal6S(b1-4)Glc6S
# Summary of the method: as §1
# [18] = molecular target: Fuc(a1-2)Gal6S(b1-4)GlcNAc
# Summary of the method: as §1
# [19] = molecular target: Fuc(a1-2)[Gal(a1-3)]Gal
# Summary of the method: as §1
# [20] = molecular target: Fuc(a1-2)[Gal(a1-3)]Gal(b1-3)GalNAc
# Summary of the method: as §1
# [21] = molecular target: Fuc(a1-2)[Gal(a1-3)]Gal(b1-3)GlcNAc
# Summary of the method: as §1
# [22] = molecular target: Fuc(a1-2)[Gal(a1-3)]Gal(b1-3)GlcNAc(b1-2)Man(a1-3)[Fuc(a1-2)[Gal(a1-3)]Gal(b1-3)GlcNAc(b1-2)Man(a1-6)]Man(b1-4)GlcNAc(b1-4)GlcNAc
# Summary of the method: as §1
# [23] = molecular target: Fuc(a1-2)[Gal(a1-3)]Gal(b1-3)GlcNAc(b1-2)Man(a1-3)[Fuc(a1-2)[Gal(a1-3)]Gal(b1-3)GlcNAc(b1-2)Man(a1-6)]Man(b1-4)GlcNAc(b1-4)[Fuc(a1-6)]GlcNAc
# Summary of the method: as §1
# [24] = molecular target: Fuc(a1-2)[Gal(a1-3)]Gal(b1-3)GlcNAc(b1-3)GalNAc
# Summary of the method: as §1
# [25] = molecular target: Fuc(a1-2)[Gal(a1-3)]Gal(b1-4)Glc
# Summary of the method: as §1
# [26] = molecular target: Fuc(a1-2)[Gal(a1-3)]Gal(b1-4)GlcNAc
# Summary of the method: as §1
# [27] = molecular target: Fuc(a1-2)[Gal(a1-3)]Gal(b1-4)GlcNAc(b1-2)Man(a1-3)[Fuc(a1-2)[Gal(a1-3)]Gal(b1-4)GlcNAc(b1-2)Man(a1-6)]Man(b1-4)GlcNAc(b1-4)GlcNAc
# Summary of the method: as §1
# [28] = molecular target: Fuc(a1-2)[Gal(a1-3)]Gal(b1-4)GlcNAc(b1-2)Man(a1-3)[Fuc(a1-2)[Gal(a1-3)]Gal(b1-4)GlcNAc(b1-2)Man(a1-6)]Man(b1-4)GlcNAc(b1-4)[Fuc(a1-6)]GlcNAc
# Summary of the method: as §1
# [29] = molecular target: Fuc(a1-2)[Gal(a1-3)]Gal(b1-4)GlcNAc(b1-3)GalNAc
# Summary of the method: as §1
# [30] = molecular target: Fuc(a1-2)[Gal(a1-3)]Gal(b1-4)GlcNAc(b1-6)GalNAc
# Summary of the method: as §1
binder,measurement,setting,value
CIH1 (Colletotrichum higginsianum) (protein) LPQATPTTPTPTSASAAATISATSSPTCSPGPVIDYTVVSGDTLTIISQRFSSGICNIADASGITNPNFLSLGQVLQVPTYVCTPDNTSCLAKEGSDTCVEGGPATHTIVAGDTFFLVAQSLGLDVNALLAANEGVDPLLLQIGDVINIPVC,glycan array binding signal (z-score),[1],-0.073
same,glycan array binding signal (z-score),[2],-0.075
same,glycan array binding signal (z-score),[3],-0.075
same,glycan array binding signal (z-score),[4],-0.063
same,glycan array binding signal (z-score),[5],0.014
same,glycan array binding signal (z-score),[6],-0.086
same,glycan array binding signal (z-score),[7],-0.059
same,glycan array binding signal (z-score),[8],-0.048
same,glycan array binding signal (z-score),[9],-0.059
same,glycan array binding signal (z-score),[10],-0.064
same,glycan array binding signal (z-score),[11],-0.051
same,glycan array binding signal (z-score),[12],-0.048
same,glycan array binding signal (z-score),[13],-0.072
same,glycan array binding signal (z-score),[14],-0.072
same,glycan array binding signal (z-score),[15],-0.048
same,glycan array binding signal (z-score),[16],-0.046
same,glycan array binding signal (z-score),[17],-0.046
same,glycan array binding signal (z-score),[18],-0.056
same,glycan array binding signal (z-score),[19],-0.066
same,glycan array binding signal (z-score),[20],-0.072
same,glycan array binding signal (z-score),[21],-0.071
same,glycan array binding signal (z-score),[22],-0.006
same,glycan array binding signal (z-score),[23],-0.082
same,glycan array binding signal (z-score),[24],-0.061
same,glycan array binding signal (z-score),[25],-0.062
same,glycan array binding signal (z-score),[26],-0.067
same,glycan array binding signal (z-score),[27],-0.049
same,glycan array binding signal (z-score),[28],-0.063
same,glycan array binding signal (z-score),[29],-0.064
same,glycan array binding signal (z-score),[30],-0.081
